This is one part of the list.

First the molecules themselves.
T1: UNK ZnF1-3 (human, UniProt Q9C0B0 31-174)
T1 sequence: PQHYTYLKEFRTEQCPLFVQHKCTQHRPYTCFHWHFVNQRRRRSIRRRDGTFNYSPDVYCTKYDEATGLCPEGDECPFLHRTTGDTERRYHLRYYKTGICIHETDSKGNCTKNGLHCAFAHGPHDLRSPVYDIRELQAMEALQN

B1: chr8:26933331:26933332:-_ENSMUSG00000031575_ENSMUST00000166078|mus_hu|FALSE|FALSE (ssRNA)
RNA: GGGAGUUCUACAGUCCGACGAUCCUGGUGGAACUUGGUUCCCUUUUUGCUCCGCCAAGAAUAGCUAAAUUUAUCAUAACCUAAAGGAGCUUGAAGGUUUCCUAGGGGCUGGGACCAACCCAGUCUGGCAGCGGUAUCUGGUGGCAACAGAGGAUUGAGCAUCA
B2: chr3:152055631:152055632:+_ENSMUSG00000025437_ENSMUST00000117492|mus_mus|motif|central (ssRNA)
RNA: GGGAGUUCUACAGUCCGACGAUCCCAGUUAUGAUUGGUUAGAGUAAUAAGAACAUUAUCGAAGCCAAAGUAUUUACAGUGCGGCAAAGGGUUUGCUGGAUCUGCCUGUAGAACAAAGGUCAGAGAACCUAGUUACCAACUGUCCAACAGAGGAUUGAGCAUCA
B3: chr2:69661947:69661948:+_ENSMUSG00000042155_ENSMUST00000053087|mus_hu|FALSE|FALSE (ssRNA)
RNA: GGGAGUUCUACAGUCCGACGAUCGGCUCGGUGACAAUGGAAAAUUAUGCCUGAAGGACACUGAAGAGUAAUAUCAGUAAAUAAUCCAUCCAAGUAAAAUGUUCUGAAUGCAUCCAGAAAAUCCACUGGAUGUGUUGAAUCCUUCAACAGAGGAUUGAGCAUCA
B4: 76046523_76046643_2167_CDS_ENSG00000078687_ENST00000588847|human|control|control (ssRNA)
RNA: GGGAGUUCUACAGUCCGACGAUCACUGUUCAUGAUGGACCCAUCGUUCUUCCCCCCUGAGUUUGAAGCCUGAGUAGCUGCACAACCCCAGGCCUCUGUCCCAUUGUCAUUUUUCCUUUCAGACCUAGGGGAUUCUUCAAAUUCCAACAGAGGAUUGAGCAUCA
B5: chr7:65705475:65705476:+_ENSG00000169902_ENST00000304842|hu_hu|hu_hu_hu_mus_True|18_18 (ssRNA)
RNA: GGGAGUUCUACAGUCCGACGAUCUCUAUUCGGUGAUGGCACUCCAUGGCAUGCUGGCCCAGGUAAAACACGGUCACAGAACUAAUCACCAGACACGCCAAGAGUAAGUUCUGCUUCAGCUUUCCAACCAUCUUGAUGUGGUUACAACAGAGGAUUGAGCAUCA
B6: chr7:141450121:141450122:+_ENSG00000106028_ENST00000265304|hu_mus|hu_hu_hu_mus_True|68_108 (ssRNA)
RNA: GGGAGUUCUACAGUCCGACGAUCUCAUCCUUUCUACGCCUUUUCUUUUGUCUGGUCACUCAGAAAUAUAAUAUUAUCAGCUAUGAUUGUUGUUGCUUGCCGCCUCACAUUGUUUUUAUCCAUGUACUCGCCAUAGUCCACUUUCAACAGAGGAUUGAGCAUCA
B7: chrX:16871948:16871949:-_ENSG00000102054_ENST00000404022|hu_hu|FALSE|FALSE (ssRNA)
RNA: GGGAGUUCUACAGUCCGACGAUCAGUAAAGAUGGCUUUAGCAUCCACAAUUUUGCCUUCUUUUGGUCCUGCGUUUAUAUCCCACAGACAAACAGUAUGGUCAUCAGAUGCACUUAGGAGAUGUCCACUCAAAUUUGAAUUCCACAACAGAGGAUUGAGCAUCA
B8: chr1:244855233:244855234:+_ENSG00000121644_ENST00000302550|hu_mus|hu_hu_hu_mus_True|38_48 (ssRNA)
RNA: GGGAGUUCUACAGUCCGACGAUCCAUCAGAUGGUAGGCGUUGCCCUUAUACUCUUUCCCCAGUUCUUCUACAAUUUUCUCUAUAUCAUCUUCUAGGAAGUCCGUGCUUCCUAGAACAACAGCUUCUUUAAAUUUAAAUGUUUCCAACAGAGGAUUGAGCAUCA
B9: chr6:47494509:47494510:-_ENSMUSG00000029687_ENSMUST00000081721|mus_mus|motif|central (ssRNA)
RNA: GGGAGUUCUACAGUCCGACGAUCCCCAAUUAGCCUAGCAAUGGCACAAAAGUUAUCGUAGUAAGUACCAAUGAGGACUCGGAACAUGGAGGCUUCAGCACCACUCCACUCCACAUUCUCAGGAGGUUCAAUAUUUGGCUUCAUCAACAGAGGAUUGAGCAUCA
B10: chr9:113799110:113799111:+_ENSMUSG00000033392_ENSMUST00000111838|mus_mus|motif|central (ssRNA)
RNA: GGGAGUUCUACAGUCCGACGAUCCAGCAGAACAAACAACCAAUCUUGAAGAUCAUCUUUGUGGACUUGUAUGAAAUCGGCGGGAGUCUCCAAGAACAUGCUGAACACCUUGCCAUGAGGAUCUGCAAACAUUCUUGUGAAAAUCAACAGAGGAUUGAGCAUCA
B11: chr1:76259871:76259872:+_ENSG00000137955_ENST00000319942|hu_hu|FALSE|FALSE (ssRNA)
RNA: GGGAGUUCUACAGUCCGACGAUCAUCCACCAUAUCUCCUGGCCUGUCUGCAAAUCCCCCCGUUUCUUCAUCUUGACAUGCUAAAAUGAAAUUACGCAGUUUCUCUCUAUCAAUCCAAUGAAGUCUUCCAAUUAUCUUUAGGGACAACAGAGGAUUGAGCAUCA
B12: 111663246_111667414_605_CDS_ENSG00000156171_ENST00000539140|human|control|control (ssRNA)
RNA: GGGAGUUCUACAGUCCGACGAUCCAUAUAUAAUGAGCCCAUACCAAAGGUAAGCACAGCUCCACUUACAUGUGCAGCAAAAAGGGUUGUUUUCUGGAAGUUUGCCACAAUAGAAAGUCCUAAACAACUCAGUAUUCCAAGUACCAACAGAGGAUUGAGCAUCA
B13: chr5:64942916:64942917:+_ENSG00000113597_ENST00000231526|hu_mus|FALSE|FALSE (ssRNA)
RNA: GGGAGUUCUACAGUCCGACGAUCAGCAUUGGAGGCUGAAAGGUUUAAACGCUGAGAACUCGUCUGCAGAUCCGCCUUCACCAAUAUAUCUUUUACAACUUGAUUGCUGUCAUUGUGAACACUGAUAUAACUGGAAAAGGUCUCCAACAGAGGAUUGAGCAUCA
B14: chr4:174298412:174298413:+_ENSG00000164105_ENST00000296504|hu_hu|FALSE|FALSE (ssRNA)
RNA: GGGAGUUCUACAGUCCGACGAUCAUUCUUCACUGAGUAGAUGAAAUAUGUUAAGGUGUCUUUUUCAUUCACUGGAAUAGACCUAAAGUGGCAACCAACUAUCUCAACAAGUUGUGCUUUAUUAAGUCCUGGUCUGGUUGGUAGCAACAGAGGAUUGAGCAUCA

The target of the assay is T1, UNK ZnF1-3. Description: nsRBNS (natural sequence RNA bind-n-seq); RBNS binding buffer (assumed for nsRBNS): 25 mM Tris pH 7.5, 150 mM KCl, 3 mM MgCl2, 0.01% Triton X-100, 500 ug/ml BSA, 20 U/ml SUPERase-In, 4 C; UNK is unkempt and MSI1 is Musashi-1; names of the RNAs are library labels; protein concentration not given here; high values mean tight binding.
On to B1, for which the binding signal amounted to 0.976 enrichment R.
B2 returned a binding signal of 0.813 enrichment R.
Take B3: the binding signal is 1.04 enrichment R.
The figure for B4 is 0.627 enrichment R; for B5 it is 0.559 enrichment R.
The molecule B6 registered a binding signal of 0.463 enrichment R.
As to B7, the binding signal turned out to be 1.41 enrichment R.
Consider B8, for which the binding signal was determined as 1.11 enrichment R.
As to B9, the binding signal was 1.21 enrichment R.
B10 had a binding signal of 1.41 enrichment R.
The figure for B11 is 0.937 enrichment R.
As for B12, the figure is 0.722 enrichment R; as for B13, 1.54 enrichment R.
As for B14, the binding signal was 0.889 enrichment R.

The values are drawn from publication PMC12136788.
